From the supplement of paper PMC7826260
The other results are listed elsewhere or left out. Viral Rep nickase domains cut single-stranded DNA in vitro at 3 µM enzyme and 37 °C for 1 h; the strands have 90 letters, of which the middle is given. Uncut reads are compared with the no-enzyme pool on a log2 scale; uncut sequences lie near 0, cut ones below; no hit call is given. Reads are scaled to the total; where an enzyme cuts many sequences, the uncut ones exceed 0.

Tests used:
Experiment in all cases: uncleaved DNA left, log2 of reads against the no-enzyme library (log2 ratio); higher = less cleavage (more negative = more Rep cleavage of the k-mer); sequences stand for … in CTCGTCCG…ACCGGAGA
[1] = tested on: T1, Rep nickase domain of Muscovy duck circovirus
T1 sequence (Rep 1-111, printed without the tag): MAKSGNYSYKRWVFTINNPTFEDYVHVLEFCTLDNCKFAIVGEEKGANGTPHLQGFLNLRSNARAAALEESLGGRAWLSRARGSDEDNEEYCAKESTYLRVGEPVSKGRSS
Protocol: (§1)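 A pool of 90-nt single-stranded DNAs with seven random bases just before the constant AC of the nick site (name = the seven bases) was cut by 3 µM recombinant His6-SUMO-tagged Rep nickase domain (300 nM DNA, 50 mM HEPES pH 8.0, 50 mM NaCl, 1 mM MnCl2, 1 h, 37 °C, three replicates). Uncut DNA was amplified and sequenced.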

[2] = tested on: T2, Rep nickase domain of banana bunchy top virus
T2 sequence (Rep 1-94, printed without the tag): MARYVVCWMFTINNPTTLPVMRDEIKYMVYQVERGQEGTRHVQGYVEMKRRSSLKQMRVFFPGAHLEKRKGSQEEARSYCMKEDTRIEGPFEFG
Protocol: as §1

[3] = tested on: T3, Rep nickase domain of cabbage leaf curl virus
T3 sequence (Rep 1-116, printed without the tag): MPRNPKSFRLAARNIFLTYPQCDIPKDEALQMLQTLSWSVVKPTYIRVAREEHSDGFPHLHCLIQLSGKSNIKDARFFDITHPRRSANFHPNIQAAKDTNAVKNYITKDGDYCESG
Protocol: as §1

[4] = tested on: T4, Rep nickase domain of chickpea chlorotic dwarf virus
T4 sequence (Rep 1-124, printed without the tag): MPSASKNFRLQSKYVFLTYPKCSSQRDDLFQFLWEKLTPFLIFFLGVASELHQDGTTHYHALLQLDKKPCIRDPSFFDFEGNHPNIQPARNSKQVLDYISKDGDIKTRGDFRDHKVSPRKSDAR
Protocol: as §1

[5] = tested on: T5, Rep nickase domain of faba bean necrotic yellows virus
T5 sequence (Rep 1-98, printed without the tag): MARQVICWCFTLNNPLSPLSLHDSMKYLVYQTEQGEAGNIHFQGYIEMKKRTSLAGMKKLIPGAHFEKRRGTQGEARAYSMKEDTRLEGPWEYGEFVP
Protocol: as §1

[6] = tested on: T6, Rep nickase domain of maize striate mosaic virus
T6 sequence (Rep 1-117, printed without the tag): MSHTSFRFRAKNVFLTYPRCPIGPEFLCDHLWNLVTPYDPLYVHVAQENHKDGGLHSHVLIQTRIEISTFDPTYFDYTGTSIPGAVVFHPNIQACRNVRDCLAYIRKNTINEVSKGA
Protocol: as §1

[7] = tested on: T7, Rep nickase domain of porcine circovirus 2
T7 sequence (Rep 2-116, printed without the tag): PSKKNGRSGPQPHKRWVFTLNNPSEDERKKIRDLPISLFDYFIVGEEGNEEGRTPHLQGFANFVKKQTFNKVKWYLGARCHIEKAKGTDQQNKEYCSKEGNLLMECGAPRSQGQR
Protocol: as §1

[8] = tested on: T8, Rep nickase domain of tomato golden mosaic virus
T8 sequence (Rep 1-124, printed without the tag): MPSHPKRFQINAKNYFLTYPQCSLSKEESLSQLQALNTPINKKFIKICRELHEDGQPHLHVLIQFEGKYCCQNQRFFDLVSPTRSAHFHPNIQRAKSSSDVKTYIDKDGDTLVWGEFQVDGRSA
Protocol: as §1

[9] = tested on: T9, Rep nickase domain of tomato yellow leaf curl virus
T9 sequence (Rep 1-136, printed without the tag): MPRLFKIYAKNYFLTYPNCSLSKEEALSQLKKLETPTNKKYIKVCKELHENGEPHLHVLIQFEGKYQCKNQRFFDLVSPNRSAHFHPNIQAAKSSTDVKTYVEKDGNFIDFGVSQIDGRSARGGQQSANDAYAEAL
Protocol: as §1

[10] = tested on: T10, Rep nickase domain of wheat dwarf virus
T10 sequence (Rep 1-137, printed without the tag): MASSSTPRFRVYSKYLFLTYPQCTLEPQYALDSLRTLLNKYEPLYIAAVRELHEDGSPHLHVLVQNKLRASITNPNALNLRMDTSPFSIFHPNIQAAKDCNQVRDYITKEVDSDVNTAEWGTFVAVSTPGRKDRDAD
Protocol: as §1

Sequence	uncleaved DNA left (log2) [1]	uncleaved DNA left (log2) [2]	uncleaved DNA left (log2) [3]	uncleaved DNA left (log2) [4]	uncleaved DNA left (log2) [5]	uncleaved DNA left (log2) [6]	uncleaved DNA left (log2) [7]	uncleaved DNA left (log2) [8]	uncleaved DNA left (log2) [9]	uncleaved DNA left (log2) [10]
GGTGACT	-0.00107	0.0646	0.776	1.92	-0.0448	2.29	0.24	-0.00741	0.0203	0.0528
ACAATTA	-0.0158	-0.0244	-0.183	-1.71	0.0967	-0.672	0.0167	0.215	-0.0169	-0.101
GACGTGT	0.138	0.0668	0.178	0.434	0.12	0.781	-0.00204	0.0663	-0.107	0.0116
ACCAGGT	0.142	0.0544	0.257	0.843	0.165	0.0882	0.262	0.0972	0.0386	0.142
GTCCGCA	-0.0286	0.011	0.294	0.67	0.0511	1.02	0.0559	0.108	-0.0245	-0.011
GGAAATC	0.045	0.241	0.889	1.82	0.0577	2.1	0.235	-0.0227	0.137	0.181
GCGGCCC	0.0565	-0.0252	0.36	0.849	-0.0167	1.12	0.106	-0.0271	0.0287	0.0996
TGTTCAG	0.0353	0.0369	-0.611	-0.578	-0.052	-1.05	0.199	-0.0379	0.00526	-0.0263
TTCGCGA	0.0755	-0.129	-0.754	-0.175	0.0487	-0.86	0.0277	-0.177	0.0221	-0.155
TTGACTC	0.0204	0.0201	0.12	0.318	-0.0316	0.37	0.0539	-0.15	-0.0237	0.117
ACCCGGC	0.00544	-0.0491	-0.268	-0.0758	0.113	-0.762	0.102	0.0131	0.0453	-0.0452
CCGCGAG	0.0145	-0.223	-0.265	0.0137	8.26e-05	-0.806	0.0296	-0.125	0.00281	-0.0289
AGGTGAT	0.0331	0.084	0.328	1.67	0.0613	1.97	-0.0218	0.266	-0.0661	0.157
AGCGTGT	-0.0489	-0.0385	-0.0321	0.406	-0.181	1.07	-0.0494	0.0637	-0.0749	0.0198
TCTATGT	0.0216	-0.0401	-0.0365	-0.199	-0.158	-0.543	-0.34	-0.075	-0.152	-0.0888
AGGTATT	-3.31	-1.89	-1.26	-1.74	-2.45	0.973	-3.9	-0.162	0.034	-0.567
TTTCGGC	0.0355	-0.0737	0.223	0.24	0.0017	-0.0415	0.0605	0.0237	-0.149	0.0145
TCATCTG	-0.0626	-0.099	-0.118	0.187	-0.0866	0.138	0.0112	-0.0954	-0.0833	-0.0207
CCTAGTC	-0.0447	-0.0296	-0.0367	-0.185	-0.00626	-0.869	0.0359	-0.0927	-0.00389	-0.0776
TGGCCCA	-0.125	-0.00436	0.295	0.314	-0.107	0.768	-0.0641	-0.0844	0.0354	0.0565
CATTCGC	0.0413	-0.0602	-0.816	-0.459	0.0386	-1.11	0.129	-0.0851	0.0882	-0.052
TAGGTCT	0.0286	-0.0738	-0.392	-2.48	-0.0874	0.834	-2.93	-0.0603	-0.0384	-0.0651
CTCGTGT	0.0144	-0.138	-0.329	-0.672	-0.103	-1	-0.0864	-0.0884	-0.0373	-0.0406
TGACAGC	0.0483	0.0599	0.573	1.16	0.00574	1.27	0.219	0.0388	-0.0157	0.161
GGAGAAT	0.0946	0.0835	0.83	1.9	0.128	2.25	0.229	0.0729	0.0414	0.159
AAGAAGC	0.00526	0.202	0.015	-0.133	0.172	-0.661	0.232	0.128	0.0715	0.0516
GTTGCCG	-0.0268	-0.149	-0.824	-0.239	-0.0623	-0.914	0.0645	-0.0871	-0.00714	-0.129
GTGTGGC	-0.0773	-0.00247	0.244	0.781	-0.162	1.57	0.0122	0.0274	-0.0811	-0.03
GAGTAGC	0.0919	-0.0486	0.00504	0.152	-0.0499	-0.507	-0.446	-0.058	0.037	0.0306
GGGTATT	-0.105	0.0782	0.765	1.94	-0.158	2.24	-2.39	-0.107	0.0748	0.0624
